# According to PubChem BioAssay (NCI):
#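 Method: 48-hour compound exposure of cells in 96-well plates, five concentrations, linear interpolation of endpoints. Abbreviation: GI50, concentration required for 50% inhibition of growth.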 Certain results were filed several times, with different values. Only these are listed. There may be further records. For some assays here: A record mostly stands for its own series of concentrations, which the source does not state; a value can be the end of its range. For some assays here: Values given together repeat one measurement in other runs, samples, wells, individuals or studies. Brackets tell where a record comes from. The letters are not those of the source and start again with each entry.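 TGI is the concentration that stops growth completely.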
# Assays:
# Experiment in all cases: NCI-60 cell line screen, 48 h
# CCRF-CEM leukemia = tested on: CCRF-CEM leukemia
# HCT-15 colon = tested on: HCT-15 colon
# HL-60(TB) leukemia = tested on: HL-60(TB) leukemia
# NCI/ADR-RES ovarian = tested on: NCI/ADR-RES ovarian
# RPMI-8226 leukemia = tested on: RPMI-8226 leukemia
# SK-MEL-5 melanoma = tested on: SK-MEL-5 melanoma
# SK-OV-3 ovarian = tested on: SK-OV-3 ovarian
# SW-620 colon = tested on: SW-620 colon
# K-562 leukemia = tested on: K-562 leukemia
# EKVX NSCLC = tested on: EKVX NSCLC
# IGROV1 ovarian = tested on: IGROV1 ovarian
# MALME-3M melanoma = tested on: MALME-3M melanoma
# UO-31 renal = tested on: UO-31 renal
# COLO 205 colon = tested on: COLO 205 colon
# HS 578T breast = tested on: HS 578T breast
# HT29 colon = tested on: HT29 colon
# MCF7 breast = tested on: MCF7 breast
# MDA-MB-435 = tested on: MDA-MB-435
# MDA-N = tested on: MDA-N
# NCI-H23 lung = tested on: NCI-H23 lung
# NCI-H522 lung = tested on: NCI-H522 lung
# SF-539 CNS = tested on: SF-539 CNS
# SNB-75 CNS = tested on: SNB-75 CNS
# SR leukemia = tested on: SR leukemia
# TK-10 renal = tested on: TK-10 renal
structure (smiles),measurement,setting,value
Oc1[nH]c2c(Br)cccc2c1C1=Nc2ccccc2/C1=N/OCCN1CCCC1,TGI,CCRF-CEM leukemia,5.88 µM and > 100 µM
same,TGI,HCT-15 colon,4.24 µM and > 100 µM
same,TGI,HL-60(TB) leukemia,3.52 µM and > 100 µM
same,TGI,NCI/ADR-RES ovarian,7.73 µM and > 100 µM
same,TGI,RPMI-8226 leukemia,4.85 µM and > 100 µM
same,TGI,SK-MEL-5 melanoma,2.38 µM and > 100 µM
same,TGI,SK-OV-3 ovarian,4.3 µM and > 100 µM
same,TGI,SW-620 colon,3.27 µM and > 100 µM
CC1(O)CC(c2nc(-c3ccc4ccc(-c5ccccc5)nc4c3)c3c(N)nccn23)C1 (centres undefined),GI50,K-562 leukemia,"13 µM [sample A, mean of 2 tests] and 41.4 nM [sample B, 1 test]"
COc1cccc(OCCCN)c1-c1cc(Nc2cnc(C#N)cn2)n[nH]1,GI50,EKVX NSCLC,17 nM [1 test] and 249 nM [mean of 2 tests]
same,GI50,IGROV1 ovarian,6.89 nM [1 test] and 102 nM [mean of 2 tests]
same,GI50,MALME-3M melanoma,47.3 nM [1 test] and 944 nM [mean of 2 tests]
same,TGI,UO-31 renal,104 nM [1 test] and 2.43 µM [mean of 2 tests]
CNC(=O)CC1NC(=O)c2csc(n2)-c2ccc(-c3nc(C4=NC(C(=O)N5CCCC5C(N)=O)CO4)cs3)nc2-c2csc(n2)-c2csc(n2)C(C(C)C)NC(=O)CNC(=O)c2csc(n2)C(C(C)C)NC(=O)c2nc1sc2C (centres undefined),TGI,COLO 205 colon,795 nM and > 25 µM
same,TGI,HL-60(TB) leukemia,7.2 nM and > 25 µM
same,TGI,HS 578T breast,7.42 nM and > 25 µM
same,TGI,HT29 colon,29 nM and > 25 µM
same,TGI,IGROV1 ovarian,683 nM and > 25 µM
same,TGI,MCF7 breast,2.48 µM and > 25 µM
same,TGI,MDA-MB-435,2.54 nM and > 25 µM
same,TGI,MDA-N,1.26 nM and > 25 µM
same,TGI,NCI-H23 lung,615 nM and > 25 µM
same,GI50,NCI-H522 lung,1.77 nM and > 25 µM
same,TGI,NCI-H522 lung,33.4 nM and > 25 µM
same,TGI,RPMI-8226 leukemia,498 nM and > 25 µM
same,TGI,SF-539 CNS,14.5 nM and > 25 µM
same,TGI,SNB-75 CNS,167 nM and > 25 µM
same,TGI,SR leukemia,175 nM and > 25 µM
same,TGI,TK-10 renal,882 nM and > 25 µM
